PubChem BioAssay AID1508624 (National Center for Advancing Translational Sciences (NCATS), 2021)
About 120 (0.25%) of roughly 48,000 compounds were called active. About 4% were inconclusive and are not listed. Calls come from the whole dose curve; as a rule, active = well fitted activation curve with a large enough effect; inconclusive = small, poorly fitted or top-dose-only effect, or another doubt; inactive = no such curve, though single readings can be large or run the other way. The list shows a part of the results.

Assay: Primary qHTS for Identification of Small Molecule Activators of Huntingtin-Antisense Promoter Activity; note: nearly all actives have a fitted effect of over 55% in size
Conditions: HEK293 HTT-AS promoter firefly luciferase reporter, 24 h; series mostly up to 57.5 µM; activity change, positive = activation: at the top concentration
Summary of the method: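 HEK293 cells carrying firefly luciferase reporters were seeded at 2,500 per well in Opti-MEM and cultured for 24 h. They were then treated with compounds at up to 57.5 uM final for 24 h at 37 degrees C before Dual-Glo luminescence readout.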

Activity change, positive = activation, inactive:
Cc1ccc(-n2c(=O)c3ccc(C(=O)NCc4ccco4)cc3n(Cc3ccc(Cl)cc3)c2=O)cc1 -17.3%
Cc1ccccc1CNCCSc1nnnn1-c1ccccc1 17.1%
Cc1ccc2c(c1)N(CC(=O)NCCCN1CCCCC1C)C(=O)c1cccnc1O2 (stereo not drawn) -2.82%
Cc1ccc2c(c1)N(S(=O)(=O)c1ccc3c(c1)NC(=O)CC(=O)N3)CCO2 -3.7%
COc1ccc(-n2c(=O)c3ccc(C(=O)NCc4ccc(C)cc4)cc3n(Cc3ccc(C)cc3)c2=O)cc1 -8.84%
COc1ccc(CNC(=O)c2nc(S(=O)(=O)Cc3ccccc3)ncc2Cl)cc1 -90.7%
Cc1ccc(-n2nc3c(=O)n(CC(=O)NCc4ccco4)nc(C)c3c2C)cc1 -16.6%
COc1ccc(CCNC(=O)CCCn2c(SCC(N)=O)nc3cc4c(cc3c2=O)OCO4)cc1OC -15.1%
CCOC(=O)N1CCc2c(sc3c2c(=O)n(Cc2ccccc2)c(=O)n3Cc2ccc(C)cc2)C1 -16.6%
COc1ccc(CNC(=O)C2=C(C)C(=O)OC23CCN(C(C)=O)CC3)cc1 -4.64%
CCCCOc1ccccc1C(=O)Nc1onc2c1CCCC2 -17.2%
CC1CCN(c2oc(-c3ccc(COc4ccc(Cl)cc4)o3)nc2C#N)CC1 -25.2%
CCOc1ccccc1CNC(=O)c1ccc(Cn2c(SCc3ccccc3)nc3cccnc32)cc1 4.89%
Cc1cc(C)c2nc(NC(=O)c3ccc(S(=O)(=O)N4CCC(C)CC4)cc3)sc2c1 -46.2%
CC(C)OC(=O)/C(C#N)=C/c1ccc(-c2ccc(Cl)c(Cl)c2)o1 4.55%
CCOC(=O)c1ccc(NC(=O)CC2C(=O)N(c3ccc(F)cc3)C(=O)N2Cc2ccc(C)cc2)cc1 (stereo not drawn) -32.7%
COc1ccc(Nc2cc(C(=O)NCCCN(C)Cc3ccccc3)c3ccccc3n2)cc1 -18.3%
CCOc1cc(C2Sc3ccccc3NC3=C2C(=O)c2ccccc23)ccc1O (stereo not drawn) -32.3%
COc1ccc(C(=O)Nc2ccccc2-c2nc3ccccc3s2)c(OC)c1 -22.5%
CCOC(=O)c1cnc2ccc(Cl)cc2c1Nc1ccc(OCC)cc1 -10.9%
Cc1cccn2c(=O)cc(COc3cccc(NC(=O)COc4ccccc4)c3)nc12 9.5%
COc1cccc(-c2nc3c(c(SCC(=O)Nc4cc(C)ccc4C)n2)Cc2c(CO)cnc(C)c2O3)c1 -10.3%
CC(=O)c1ccc(NC(=O)CSc2nc(C3CCCC3)nc3c2c(=O)n(C)c(=O)n3C)cc1 -0.686%
CC(=O)c1ccc(NC(=O)CCc2nc(-c3ccc(C)cc3)no2)cc1 -15.3%
Cc1nc(-n2nc(C)c(CCC(C)C)c2C)sc1C(=O)Nc1ccc(Br)cc1 26%
Cc1c(NC(=O)c2ccc(Br)o2)cccc1-c1nc2ccccc2o1 -32.4%
Cc1cccc(C)c1NC(=O)CCS(=O)(=O)c1cccc2nonc12 -6.68%
CCOc1ccccc1NC(=O)c1cc2c(=O)n(Cc3cccnc3)ccc2nc1C -6.37%
CCOC(=O)c1ccc(NC2=CC(c3ccc(F)cc3)N(c3ccc(C(=O)OCC)cc3)C2=O)cc1 (stereo not drawn) -1.58%
Cc1ccccc1Cn1c(SCc2ccc(C(=O)NC3CCCC3)cc2)nc2ccncc21 -4.95%
CCCSc1nc2sc3c(c2c(=O)n1-c1cccc(Br)c1)CC(C)(C)OC3 -6.35%
CCOC(=O)c1c(C)[nH]c(C)c1S(=O)(=O)N1CCC(C(=O)Nc2ccc(C)c(Cl)c2)CC1 -28.4%
CC(=O)Nc1ccc(Nc2ncnc3c2c(-c2ccccc2)cn3-c2ccc(C)c(Cl)c2)cc1 -36.2%
COc1ccccc1N=c1scc(-c2ccc(S(=O)(=O)N3CCCC3)cc2)n1C -77.9%
COc1ccccc1CNC(=O)CCNS(=O)(=O)c1cccc2nsnc12 -3.96%
Cc1nc2c(c(C)nn2-c2ccccc2)c(C)c1CCC(=O)NCCc1ccc(Cl)cc1 -13.4%
COc1cccc(NC(=O)N2CCN(C(=O)c3nsc4ccccc34)CC2)c1 -10.2%
COc1ccc(NC(=O)N2CCN3CCCCC3C2)cc1OC (stereo not drawn) -2.29%
CCOC(=O)c1cc(-c2ccccc2)n(-c2cccc(C(=O)N(C)c3ccc(C)cc3)c2)c1C -36.9%
CC(C)[C@H](O)C(=O)N[C@@H](C)C(=O)N[C@@H]1C(=O)N(C)CCc2ccccc21 -2.25%
Fc1ccc(N2CCN(Cc3cccn3-c3nnc(N4CCN(C5CCCCC5)CC4)s3)CC2)cc1 -6.45%
Cc1ccc(NC(=O)C2CCCN(c3cnccn3)C2)c(C)c1 (stereo not drawn) -2.51%
CCc1ccc(-c2nc(CSCC(=O)N3CCN(c4ccc(F)cc4)CC3)c(C)o2)cc1 -34.7%
CCc1ccccc1NC(=O)c1cc2c(Cl)nc3ccccc3c2s1 -42.6%
Nc1ncnc2nc[nH]c12 -1.78%
CCc1ccc(S(=O)(=O)c2nnn3c2nc(NCCNC(C)=O)c2cc(Cl)ccc23)cc1 0%
CC(C)(C)NC(=O)c1oc2ccccc2c1NC(=O)c1ccc(F)cc1 -2.51%
COc1ccc(CCN2C(=O)CN(C3CCC(C)CC3)C(=O)C2c2ccc(OC(C)C)c(OC)c2)cc1OC (stereo not drawn) -20.9%
CCc1nn(CCCC(=O)NC(C)c2ccccc2)c(=O)c2cc3occc3n12 (stereo not drawn) -11.3%
COCCN(CCOC)c1ncnc2c1c(-c1ccccc1)cn2-c1ccc(C)c(Cl)c1 -30.7%
Cc1ccc(Cn2cc(CCC(=O)NCc3ccc(OC(C)C)cc3)c3ccccc32)cc1 -20.8%
CCCCNC(=O)C(CC)Sc1nc2ccccc2c(=O)n1CCc1ccc(OC)c(OC)c1 (stereo not drawn) -5.8%
Cc1ccc(S(=O)(=O)c2nnn3c2nc(NCc2ccccc2Cl)c2sccc23)cc1 -15.2%
CCOC(=O)c1ccc(NC(=O)c2nn(C)c3c2COc2ccccc2-3)cc1 -1.67%
CC(C)c1ccc(OCc2cc(=O)n3c(-c4ccccc4)csc3n2)cc1 -18.5%
COc1cc(-c2cc(OC)c3c(C)oc(C)c3c(=O)c2)ccc1OC(=O)c1cccc(Cl)c1 -18.6%
COc1ccc(NC(=O)CCCN2C(=O)COc3ccc(C)cc32)cc1OC -11.8%
CCCCN1CCCC[C@H]1C(=O)Nc1c(C)cccc1C -13.9%
O=C(Cn1c(=O)n(-c2ccc(Cl)cc2)c(=O)c2c3c(sc21)CCC3)c1ccccc1 -9.62%
CCOC(=O)c1c(NC(=O)CSc2cn(CCNC(=O)c3ccccc3F)c3ccccc23)sc2c1CCCC2 -34.3%
CC(C)(C)OC(=O)N1CCC(c2c(C(=O)N3CCN(C(=O)c4ccco4)CC3)cnn2-c2ccccc2Cl)CC1 -18.6%
COCCCNC(=O)c1ccc2c(c1)NC(=O)C(C(C)C)N2 (stereo not drawn) -10%
O=C(Cn1c(=O)c2cccn2c2cccnc21)NCc1ccccc1F -9.73%
CC1=C(C(=O)Nc2ccc(C)cc2C)C(c2ccccc2F)n2nc(SCC(=O)c3ccc(C)cc3)nc2N1 (stereo not drawn) 0%
CCc1ccc(NC(=O)c2cnc3sc(N4CCCC4)nn3c2=O)cc1 -28.2%
Cc1cc2nc(-c3ccc(OCc4ccccc4)cc3)cc(C(F)(F)F)n2n1 -0.378%
COc1ccccc1NC(=O)C1CCC(CNS(=O)(=O)c2ccc3c(c2)CC(C)N3C(C)=O)CC1 (stereo not drawn) -48.7%
Cc1cc(-n2c(C)nc3ccccc3c2=O)ccc1NC(=O)c1ccc([N+](=O)[O-])cc1 -15%
O=C(Nc1ccc(S(=O)(=O)N2CCCCCC2)cc1)c1cc(=O)c2ccccc2o1 -7.04%
Cc1ccc(NC(=O)Cn2c(=O)n(Cc3ccc4c(c3)OCO4)c(=O)c3ccc(C(=O)NC4CCCCC4)cc32)c(C)c1 -9.93%
CCc1ccc(NC(=O)Cn2c(-c3cncs3)nc3ccccc32)cc1 -16.8%
CCn1c2ccccc2c2cc(CN3CCN(Cc4ccccc4C)CC3)ccc21 -21.1%
COc1ccccc1C(=O)Nc1ccc(OCc2cc(=O)n3cc(C)sc3n2)cc1 -4.22%
COc1ccc(C)cc1NC(=O)c1ccc2c(c1)nnn2C1CCCC1 -19.5%
Cc1ccc2[nH]c(=O)c3cc(C(=O)NCCc4ccc(Cl)cc4)sc3c2c1 -14.2%
O=C(c1ccc2c(c1)N(Cc1cccc(Cl)c1)C(=O)c1ccccc1S2)N1CCOCC1 -32.2%
c1ccc(OCCn2c(COc3ccccc3)nc3ccccc32)cc1 1.72%
O=C1c2oc3ccccc3c(=O)c2C(c2cccc(Cl)c2)N1c1ccccn1 (stereo not drawn) -15.8%
COc1ccc(S(=O)(=O)c2cnc(SCC(=O)Nc3cc(F)ccc3C)[nH]c2=O)cc1Cl -2.93%
CCC1CCCCN1C(=O)c1sc(-n2nc(C)c(Cc3ccccc3)c2C)nc1C (stereo not drawn) -9.97%
CC(=O)c1cccc(NC(=O)c2cc3c(s2)-c2c(C)cccc2OC3)c1 -38.9%
Cc1ccc(Cl)cc1NC(=O)CN1C(=O)C(C)(C)c2cc(S(=O)(=O)N3CCCCC3)ccc21 -38.6%
COc1cccc(OC(=O)CSc2nnc(-c3ccc4c(c3)OCO4)o2)c1 -53.3%
CC(C)CCN(C(=O)Nc1ccc(Cl)c(Cl)c1)C(C)c1cccs1 (stereo not drawn) -27%
CCOC(=O)c1c(S(=O)(=O)NCC(=O)NCc2ccccc2)c(C)n(C)c1C -15.2%
O=C1Nc2ccc(Cl)cc2[C@@](C#CC2CC2)(C(F)(F)F)O1 -38%
CCOC(=O)c1ccc(OC(=O)c2cn(-c3cccc(OC)c3)c(=O)c3ccccc23)cc1 -22.2%
CCc1ccc2c(c1)NC(c1ccc(OC)cc1)=NC(c1ccncc1)=N2 -7.54%
CCOc1ccccc1NC(=O)C(C)N(c1ccccc1)S(C)(=O)=O (stereo not drawn) -8.95%
COc1cc(/C=C/c2nc(C#N)c(N3CCC(C)CC3)o2)cc(OC)c1OC -31.6%
CC(=O)c1ccc(N2CCN(C(=O)CCS(=O)(=O)c3ccc4c(c3)oc(=O)n4C)CC2)cc1 10.2% [at 11.5 µM, percent change from vehicle, -100% = no light]
CCOc1ccc(NS(=O)(=O)c2ccc3[nH]cc(C(=O)NCC4CCCO4)c(=O)c3c2)cc1 (stereo not drawn) -10.1%
Nc1c(-c2nc(-c3ccc(F)cc3)cs2)c2ccccn2c1C(=O)c1ccc2c(c1)OCO2 5.94%
